Reference: PMC10945505 (2024)

Target: L-39F7
Test: BLI

B1: Human βKlotho (receptor)
chain: not shown
With B1 the Kd was 1.7 nM.
